Results published in article PMC4336329 (PLoS ONE, 2015).
Out of some 310,000 compounds screened, about 14,000 (4.5%) showed an effect of 50% or more. Effects have a minus sign here. The list shows a part of the results.

biological target: human ether-à-go-go-related gene (hERG) potassium channel (human, UniProt Q12809); assay: primary screen, population patch clamp on CHO cells stably expressing hERG
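Note: peak tail current of the secondary pulse compared with the same well before compound.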

Chain of human ether-à-go-go-related gene (hERG) potassium channel (Q12809 whole entry, looked up): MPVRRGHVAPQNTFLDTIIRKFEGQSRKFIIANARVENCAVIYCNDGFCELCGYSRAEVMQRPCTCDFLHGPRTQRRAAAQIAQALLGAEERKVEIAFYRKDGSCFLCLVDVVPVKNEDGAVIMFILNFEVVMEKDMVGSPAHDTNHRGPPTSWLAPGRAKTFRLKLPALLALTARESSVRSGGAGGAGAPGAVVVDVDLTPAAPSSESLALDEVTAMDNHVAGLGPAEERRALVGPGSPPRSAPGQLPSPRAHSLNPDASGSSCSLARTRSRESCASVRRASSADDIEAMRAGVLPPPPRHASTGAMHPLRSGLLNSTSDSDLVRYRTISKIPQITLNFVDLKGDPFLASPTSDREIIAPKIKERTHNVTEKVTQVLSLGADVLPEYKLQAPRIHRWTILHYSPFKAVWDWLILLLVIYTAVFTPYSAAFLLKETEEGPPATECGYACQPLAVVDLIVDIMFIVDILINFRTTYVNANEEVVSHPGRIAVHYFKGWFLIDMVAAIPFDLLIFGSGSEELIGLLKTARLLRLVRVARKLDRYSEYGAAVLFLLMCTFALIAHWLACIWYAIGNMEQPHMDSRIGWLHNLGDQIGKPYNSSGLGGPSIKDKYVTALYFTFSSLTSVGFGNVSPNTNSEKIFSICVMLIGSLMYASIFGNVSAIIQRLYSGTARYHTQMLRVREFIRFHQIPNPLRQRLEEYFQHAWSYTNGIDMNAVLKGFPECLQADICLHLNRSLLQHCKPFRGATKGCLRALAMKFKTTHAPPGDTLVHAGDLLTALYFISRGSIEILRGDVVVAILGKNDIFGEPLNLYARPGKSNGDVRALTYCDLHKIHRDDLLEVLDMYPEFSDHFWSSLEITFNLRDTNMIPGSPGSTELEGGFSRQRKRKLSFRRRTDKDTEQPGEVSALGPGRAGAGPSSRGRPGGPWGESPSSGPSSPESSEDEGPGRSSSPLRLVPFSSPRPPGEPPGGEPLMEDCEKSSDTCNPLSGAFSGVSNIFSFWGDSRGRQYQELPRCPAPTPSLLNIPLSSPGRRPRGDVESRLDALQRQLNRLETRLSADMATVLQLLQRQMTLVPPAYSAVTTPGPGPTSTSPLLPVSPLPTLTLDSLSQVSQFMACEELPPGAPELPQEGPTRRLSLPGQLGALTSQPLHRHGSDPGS

Row | SMILES | hERG current change (%, negative = inhibition) at 10uM [%]
1 | Cc1ccc(CNC(=O)c2cnc3ccccc3n2)cc1 | -5.95
2 | COc1ccc(N2CCN(C(=O)COC(=O)COc3ccc(C#N)cc3)CC2)cc1 | 3.33
3 | O=S(=O)(c1cnc(Cl)c(Br)c1)N1CCc2ccccc21 | 1.83
4 | COc1ccc(C2C3CCCCC3(O)CCN2C(=O)c2cccs2)cc1 (centres unmarked) | 5.52
5 | COc1ccc(-c2coc3cc(O)ccc3c2=O)cc1OC | 7.58
6 | Cn1nnnc1SCC(=O)NC(=O)c1cccc([N+](=O)[O-])c1 | 2.51
7 | CCCC(=O)Nc1nc(-c2ccc3c(c2)CCN3S(C)(=O)=O)cs1 | 9.03
8 | COc1ccc(NC(=O)CCN2C(=O)c3ccc([N+](=O)[O-])cc3C2=O)c(OC)c1 | -15
9 | COc1ccccc1CNC(=O)c1ccc(CS(=O)(=O)c2ccccc2)o1 | 1.12
10 | O=C(N/C(=C\c1ccccc1)C(=O)N1CCOCC1)c1ccccc1Cl | 0.479
11 | CC(=O)c1c(C)nc2ccc(Cl)cn12 | 9.34
12 | CCOC(=O)c1cc(C)sc1N1C(=O)C2C3C=CC(C3)C2C1=O (centres unmarked) | -3.88
13 | CCc1cc2c(COC(=O)c3cc(S(=O)(=O)N4CCOCC4)ccc3F)cc(=O)oc2cc1O | 6.39
14 | O=C(NCCN1C(=O)S/C(=C\c2ccccc2F)C1=O)C1CCCN1C(=O)c1cccs1 (centres unmarked) | -23.2
15 | Cc1nn(-c2ccccc2)c2c1C(c1ccc(O)c(O)c1)N1C(=N2)C(Nc2ccccc2)=Nc2ccccc21 (centres unmarked) | 6.99
16 | C=CCNc1nnc(SC2CC(=O)N(c3ccc(OC)cc3)C2=O)s1 (centres unmarked) | -0.141
17 | Cc1cc(/C=C2\C(=N)N3N=C(c4ccco4)SC3=NC2=O)c(C)n1Cc1ccccc1 | -10.8
18 | Cc1cccc(/C=N/Nc2nncc3ccccc23)c1 | -21.1
19 | Cc1nc(SCC(=O)N2CC(=O)Nc3ccccc32)nc(C)c1C | 37.3
20 | CCc1ccc(NC(=O)CSc2nc3n[nH]c(C)c3c(=N)n2-c2cccc(OC)c2)cc1 | -8.13
21 | Fc1ccccc1CSc1ccc(-c2ccco2)nn1 | -45.9
22 | COc1ccccc1CNS(=O)(=O)c1ccc(-c2cnc(C3CC3)o2)cc1 | -6.72
23 | N#CCc1ccc(NC(=O)c2ccc(CN3CCc4ccccc4C3)cc2)cc1 | 13.2
